# According to publication PMC12820563:
# The list shows a part of the results. The list includes weakly bound sequences.
# Biological target: T1, MBP-FoxP3dN (UniProt Q99JB6)
# T1 sequence: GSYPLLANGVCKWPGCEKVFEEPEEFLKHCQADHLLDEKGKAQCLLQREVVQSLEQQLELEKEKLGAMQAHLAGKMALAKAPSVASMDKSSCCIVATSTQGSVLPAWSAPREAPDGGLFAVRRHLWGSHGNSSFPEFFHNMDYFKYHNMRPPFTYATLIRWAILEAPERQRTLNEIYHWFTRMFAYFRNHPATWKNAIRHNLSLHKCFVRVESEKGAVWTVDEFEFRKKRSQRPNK
# Assay: PD-seq (MBP pull-down with sequencing)
# Conditions: 20 mM Tris-HCl pH 7.5, 100 mM NaCl, 1.5 mM MgCl2, 0.4 uM protein, 0.1 uM dsDNA library, 30 min, room temperature, amylose pull-down; high values mean tight binding; double strand, one strand shown
row,Sequence,binding signal (RPM ratio (pull-down/input))
1,GATGATTGTTCTCCCAGCTGATGAATTGGCATTGTCGAGTAAACAAATTTTCCTAATCTTTCTGTTCAAGCGCCATCTAC,2.47
2,GATGATTGTTCTCCCAGCTGATGAATTGAACAGATCGAGTAAACAAATTTTCCTAATCTTTCTGTTCAAGCGCCATCTAC,0.174
3,GATGATTGTTCTCCCAGCTGATGAATTATATTGCTCGAGTAAACAAATTTTCCTAATCTTTCTGTTCAAGCGCCATCTAC,1.53
4,GATGATTGTTCTCCCAGCTGATGAATTTTGTTTCTCGAGTAAACAAATTTTCCTAATCTTTCTGTTCAAGCGCCATCTAC,5.54
5,GATGATTGTTCTCCCAGCTGATGAATTCCTGCCTTCGAGTAAACAAATTTTCCTAATCTTTCTGTTCAAGCGCCATCTAC,1.75
6,GATGATTGTTCTCCCAGCTGATGAATTCGGTCGCTCGAGTAAACAAATTTTCCTAATCTTTCTGTTCAAGCGCCATCTAC,0.361
7,GATGATTGTTCTCCCAGCTGATGAATTAATTGAATCGAGTAAACAAATTTTCCTAATCTTTCTGTTCAAGCGCCATCTAC,0.292
8,GATGATTGTTCTCCCAGCTGATGAATTCTCCCGTTCGAGTAAACAAATTTTCCTAATCTTTCTGTTCAAGCGCCATCTAC,0.247
9,GATGATTGTTCTCCCAGCTGATGAATTCACCGTCTCGAGTAAACAAATTTTCCTAATCTTTCTGTTCAAGCGCCATCTAC,0.359
10,GATGATTGTTCTCCCAGCTGATGAATTGTTAATCTCGAGTAAACAAATTTTCCTAATCTTTCTGTTCAAGCGCCATCTAC,0.654
11,GATGATTGTTCTCCCAGCTGATGAATTTCACCTCTCGAGTAAACAAATTTTCCTAATCTTTCTGTTCAAGCGCCATCTAC,0.48
12,GATGATTGTTCTCCCAGCTGATGAATTTTAGAAGTCGAGTAAACAAATTTTCCTAATCTTTCTGTTCAAGCGCCATCTAC,0.183
13,GATGATTGTTCTCCCAGCTGATGAATTCACCACCTCGAGTAAACAAATTTTCCTAATCTTTCTGTTCAAGCGCCATCTAC,0.353
14,GATGATTGTTCTCCCAGCTGATGAATTATCGTGATCGAGTAAACAAATTTTCCTAATCTTTCTGTTCAAGCGCCATCTAC,0.421
15,GATGATTGTTCTCCCAGCTGATGAATTGAGGGGTTCGAGTAAACAAATTTTCCTAATCTTTCTGTTCAAGCGCCATCTAC,0.486
16,GATGATTGTTCTCCCAGCTGATGAATTGTGTTGATCGAGTAAACAAATTTTCCTAATCTTTCTGTTCAAGCGCCATCTAC,7.06
17,GATGATTGTTCTCCCAGCTGATGAATTTTGGTTATCGAGTAAACAAATTTTCCTAATCTTTCTGTTCAAGCGCCATCTAC,1.54
18,GATGATTGTTCTCCCAGCTGATGAATTTGAGGTCTCGAGTAAACAAATTTTCCTAATCTTTCTGTTCAAGCGCCATCTAC,0.871
